PubChem BioAssay (NCI)
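Briefly, cells in 96-well plates were exposed to five compound concentrations for 48 h, and endpoints were estimated by linear interpolation. GI50 is the concentration that inhibits growth by half. TGI marks complete inhibition of growth.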

These compounds were tested on NCI-H322M lung (assay: inhibition of tumour cell growth, NCI panel, 48 h).
Work on `COc1ccc(C2C(C#N)=C(N)Oc3c2sc2ccc(C)cc32)cc1` (centres undefined) yielded a GI50 of 14.4 µM and a TGI of over 100 µM. With `[Cl][Ru].c1ccc(-c2cccc(-c3ccccn3)n2)nc1.c1ccc(-c2ccnc3c2ccc2c(-c4ccccc4)ccnc23)cc1` the GI50 was 4.69 µM and the TGI was 20.1 µM. In the case of `N#Cc1c(NC(=O)c2ccc(F)c(Cl)c2)sc2c1CCC(=O)C2`, the GI50 is reported as 3 µM and the TGI is reported as over 53.4 µM. With `Cc1ccc2c(n1)C(=O)C(Cl)=C(Nc1cccc(C(F)(F)F)c1)C2=O` the GI50 was 16.1 µM and the TGI was 30.3 µM. Compound `Oc1cccc2ccc(-c3nnc(SCc4ccc(O)c5ncccc45)o3)nc12` has a GI50 of 1.8 µM and a TGI of over 100 µM. In the case of `CC(C)=CCc1c2c(c(O)c3c1O[C@]14C(=C[C@@H]5C[C@H]1C(C)(C)O[C@@]4(C/C=C(/C)C(=O)O)C5=O)C3=O)CC(O)C(C)(C)O2` (some centres undefined), the GI50 is reported as 20.6 µM and the TGI is reported as 49.7 µM. `CCN(CC)c1ccc(/C=N/NC(=O)c2ccc(NS(C)(=O)=O)cc2)cc1` was tested, and the GI50 was 0.352 µM and the TGI was over 100 µM.
